# From PubChem BioAssay AID488969 (Vanderbilt High Throughput Screening Facility, 2010)
# The full ranking holds about 110,000 compounds; the median of “z-score” is about -0.1, and the highest 2% start at about 2. The list shows a part of the results. Activity calls are given as the source filed them.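 The calls were made as follows: active = z-score in the third read window above 3 or below -3; inactive = the rest.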
# Target: Metabotropic glutamate receptor 8 (Rattus norvegicus) (UniProt P70579)
# Test: mGluR8 Gi/Go-coupled signaling modulation – cell-based, rat, thallium flux, HTS, primary screen (AID 488969)
# Conditions: HEK293 rat mGluR8, GIRK (G protein-gated inwardly rectifying potassium channel) thallium flux, FluoZin2; at 10 µM; stronger effect = higher value; submaximal glutamate (EC20) added with thallium
# UniProt P70579, sequence (P70579 whole entry, looked up): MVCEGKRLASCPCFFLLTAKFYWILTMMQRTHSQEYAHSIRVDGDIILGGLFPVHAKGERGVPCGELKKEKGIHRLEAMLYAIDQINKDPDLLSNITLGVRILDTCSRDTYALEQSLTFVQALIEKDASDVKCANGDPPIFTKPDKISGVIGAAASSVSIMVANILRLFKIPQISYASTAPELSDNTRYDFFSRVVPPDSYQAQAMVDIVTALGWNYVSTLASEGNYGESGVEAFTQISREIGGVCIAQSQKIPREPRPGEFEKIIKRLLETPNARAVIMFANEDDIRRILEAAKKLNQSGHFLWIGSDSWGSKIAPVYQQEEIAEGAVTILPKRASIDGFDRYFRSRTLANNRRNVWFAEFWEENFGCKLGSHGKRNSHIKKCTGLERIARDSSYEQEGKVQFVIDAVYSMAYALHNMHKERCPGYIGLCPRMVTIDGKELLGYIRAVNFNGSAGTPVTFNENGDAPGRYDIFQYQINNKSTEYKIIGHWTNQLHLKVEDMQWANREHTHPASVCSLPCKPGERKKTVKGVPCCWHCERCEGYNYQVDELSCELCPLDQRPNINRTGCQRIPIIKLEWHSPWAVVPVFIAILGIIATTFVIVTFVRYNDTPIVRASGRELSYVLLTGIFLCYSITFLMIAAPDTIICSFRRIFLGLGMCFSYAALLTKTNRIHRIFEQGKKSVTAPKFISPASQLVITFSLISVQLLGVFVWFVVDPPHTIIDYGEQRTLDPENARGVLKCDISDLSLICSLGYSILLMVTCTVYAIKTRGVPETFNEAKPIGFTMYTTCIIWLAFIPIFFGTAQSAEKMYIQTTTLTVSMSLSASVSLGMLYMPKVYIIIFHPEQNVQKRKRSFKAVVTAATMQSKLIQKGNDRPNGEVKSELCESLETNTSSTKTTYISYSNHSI
row,SMILES,z-score
1,COc1ccc(C(=O)NCCc2nnc(SCc3nc4ccccc4c(=O)[nH]3)n2C)cc1,-0.361
2,Cc1ccc(P(=O)(CSC(=N)N)c2ccc(C)cc2)cc1,0.125
3,Oc1c(CN2CCc3ccccc3C2)cc(Cl)c2cccnc12,2.72
4,CC(=O)Nc1ccc(NC(=O)C(C)OC(=O)c2ccccc2Sc2ccccc2C#N)cc1 (stereo not drawn),0.414
5,C=CCn1c(NC(=O)CC)c(C(=O)OCC)sc1=S,-0.979
6,CCOc1ccc(NS(=O)(=O)c2ccc(NC(=S)NC(=O)C(C)C)cc2)cc1,-0.0271
7,Cc1nc2nc(-c3ccccc3)nn2c(C)c1Cl,0.197
8,COc1ccc2c(c1OC)C(=O)OC2Nc1ncccc1C (stereo not drawn),-0.218
9,Cn1c(CN2CCCC2)nc2cc(NC(=O)C3CCCCC3)ccc21,-0.205
10,CCC(/C=N/Nc1ccc(S(=O)(=O)N2CCCC2)cc1[N+](=O)[O-])CC,-0.217
11,COc1ccc(C2C3=C(CCCC3=O)Nc3nc(SCc4ccccc4)nn32)cc1OC (stereo not drawn),0.474
12,CC1Cc2ccccc2N1C(=O)COc1nc2ccccc2nc1N1CCOCC1 (stereo not drawn),-0.126
13,CN(C)c1ccc(NC(=O)COC(=O)CCC(=O)c2ccc(F)cc2)cc1,0.474
14,Cc1nn2c(nc(N3CCOCC3)c3ccccc32)c1C=C(C#N)C#N,-0.113
15,O=C(COc1ccccc1O)Nc1ccccc1Cl,0.702
16,NC(=O)CC(c1ccccc1)c1ccco1 (stereo not drawn),-0.579
17,CC(Sc1nc(NCc2ccccc2)nc(N2CCOCC2)n1)C(=O)Nc1ccccc1 (stereo not drawn),-1.09
18,Cc1nn(-c2ccccn2)c2c1C(c1ccccc1Cl)C1=C(N2)c2ccccc2C1=O (stereo not drawn),-0.893
19,COc1ccc(-c2c3c(=O)n(C)c(=O)n(C)c3cn2Cc2cccnc2)cc1,-0.122
20,C/C(=N\NC(=O)CN(c1ccccc1)S(=O)(=O)c1ccccc1[N+](=O)[O-])C(C)(C)C,-0.941
21,O=c1c2c(ncn2C2CCCC2)n(Cc2ccccc2)c(=O)n1CCOc1ccc(Br)cc1,-0.222
22,C/C=C/c1ccc(OCCCCN2C(=O)NC(C)(C)C2=O)c(OC)c1,-0.579
23,O=C(Nc1ccc(S(=O)(=O)NCc2ccccc2)cc1)c1ccc(Br)o1,0.32
24,COc1ccc(CCC(=O)N2CCN(S(=O)(=O)c3ccc4ccccc4c3)CC2)cc1,-0.528
25,CC(=O)C1=C(O)C(=O)N(Cc2cccnc2)C1c1ccc(Cl)cc1Cl (stereo not drawn),-0.364
26,CC(O)CNCc1ccc(-c2ccccc2)cc1 (stereo not drawn),0.106
27,Cc1onc(-c2c(Cl)cccc2Cl)c1C(=O)NCc1ccco1,0.0309

row,SMILES,z-score
1,Cc1ccccc1Cn1nc(C)c(NC(=O)c2nc3n(n2)C(C(F)F)CC(C)N3)c1C (stereo not drawn),-0.0871
2,O=C1c2ccccc2C(=O)N1n1c(=O)[nH]c2ccccc2c1=O,0.165
3,O=C(CN1C(=O)CSC1=O)Nc1ccc(N2CCOCC2)cc1,-0.877
4,CCOC(=O)N1CCN(c2nnnn2-c2ccccc2)CC1,-0.14
5,CCOC(=O)c1c(-c2ccccc2)csc1NC(=O)c1nn(CC)cc1Br,-0.101
6,CCC(C)N(C(=O)COC(=O)c1[nH]c(C)c(C(C)=O)c1C)C1CCS(=O)(=O)C1 (stereo not drawn),0.473
7,NS(=O)(=O)c1ccc(CCNC(=O)c2ccccc2F)cc1,0.657
8,O=C(CCCn1c(=O)[nH]c2ccsc2c1=O)N1CCN(c2ccccn2)CC1,0.703
9,Cc1ccc(/C=N/NC(=O)c2cc3c(ccc4ccccc43)o2)cc1[N+](=O)[O-],-0.185
10,Cc1c(C(=O)Nc2ccc3c4c(cccc24)CC3)cccc1[N+](=O)[O-],-0.136
11,Cn1ccnc1SCC(=O)NC1CCCCC1,1.1
12,Cc1ccc(C(=O)Nc2ccc(C(=O)N/N=C/c3c[nH]c4ccccc34)cc2)cc1,0.219
13,Cc1nc2c(-c3ccc(F)cc3)c(C)nn2c(C)c1CCC(=O)NCc1ccco1,-1.1
14,Cc1cccc(-n2ncc3c(NCCCO)ncnc32)c1,0.607
15,C/C(=N\O)C1(C)N(O)C(C)(C)C(c2ccco2)=[N+]1[O-] (stereo not drawn),-0.295
16,Cn1c(CSc2nnc(SCc3ccccc3)s2)nc2ccccc21,0.343
17,Fc1ccc(NC(=S)NC2CCCCC2)c(F)c1F,-0.0971
18,COc1ccccc1NC(=S)N(Cc1ccco1)Cc1cc2cc(C)cc(C)c2[nH]c1=O,-0.117
19,CCOC(=O)/C(=C\C=C1/Sc2cc(OCC)c(OCC)cc2N1CC)C(C)=O,-0.787
20,CC(O)(CS(=O)(=O)Cc1ccc(Cl)cc1)C(=O)Nc1cccc(C(F)(F)F)c1 (stereo not drawn),-0.155
21,CC(=O)Nc1nnc(-c2ccccn2)o1,-0.00401
22,COc1ccc(S(=O)(=O)N2CCN(c3ccccc3OC)CC2)cc1OC,-0.112
23,CCCC1c2ccc(C)n2CCN1C(=O)Nc1ccc(F)cc1 (stereo not drawn),-0.175
24,Clc1ccc(Cl)c(Oc2ccc(Oc3nc(Cl)ccc3Cl)cc2)n1,-0.176
25,Cc1[nH]c2ccc(-c3n[nH]c(=S)n3-c3ccccc3)cc2c1C,-0.523
26,CCCCOc1ccccc1C1C(C(=O)OC)=C(C)N(C)C(C)=C1C(=O)OC,active: -4.64
